# According to the supplement of paper PMC3334620:
# In all, about 33,000 sequences were measured (“E-score (-0.5 to 0.5)”: median about -0.021, highest 2% from about 0.32 on). Some of the results follow.
# Molecular target: T1, Zap1 (UniProt P47043)
# T1 sequence: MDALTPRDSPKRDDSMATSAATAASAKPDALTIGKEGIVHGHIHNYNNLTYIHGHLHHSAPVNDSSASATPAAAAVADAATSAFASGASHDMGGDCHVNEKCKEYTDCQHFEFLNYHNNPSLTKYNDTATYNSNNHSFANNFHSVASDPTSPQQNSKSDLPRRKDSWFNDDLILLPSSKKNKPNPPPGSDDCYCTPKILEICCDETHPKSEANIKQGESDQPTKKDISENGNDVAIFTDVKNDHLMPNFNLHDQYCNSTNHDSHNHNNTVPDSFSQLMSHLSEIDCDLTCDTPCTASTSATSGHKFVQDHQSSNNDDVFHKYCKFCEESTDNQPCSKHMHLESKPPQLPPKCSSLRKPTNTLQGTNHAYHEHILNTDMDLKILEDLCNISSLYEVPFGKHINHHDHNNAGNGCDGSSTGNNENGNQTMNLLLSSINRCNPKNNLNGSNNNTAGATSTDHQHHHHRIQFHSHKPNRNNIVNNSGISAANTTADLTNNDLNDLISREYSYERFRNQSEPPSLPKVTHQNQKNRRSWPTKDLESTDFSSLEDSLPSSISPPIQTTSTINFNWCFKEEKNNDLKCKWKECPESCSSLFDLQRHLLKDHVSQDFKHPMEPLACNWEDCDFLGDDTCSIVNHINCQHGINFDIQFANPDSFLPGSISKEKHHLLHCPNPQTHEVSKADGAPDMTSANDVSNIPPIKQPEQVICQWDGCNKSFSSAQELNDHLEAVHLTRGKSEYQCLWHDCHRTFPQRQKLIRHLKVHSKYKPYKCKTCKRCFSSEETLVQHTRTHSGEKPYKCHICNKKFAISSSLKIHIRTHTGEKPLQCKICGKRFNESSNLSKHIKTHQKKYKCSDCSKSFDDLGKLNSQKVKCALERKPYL
# Assay: PBM E-score (8-mer binding enrichment) (E-score (-0.5 to 0.5)); higher = stronger / more preferred TF binding; most listed sequences are background and not binding sites
# Details: protein concentration: 200 nM; construct: GST-full length
# How it was run: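 Masliner-normalised scans of fluorescent anti-GST signal were the basis for scoring. That signal came from GST-tagged yeast transcription factors applied at about 100-200 nM to double-stranded universal all-10-mer Agilent arrays on fresh or once-stripped slides. Each ungapped eight-base word, pooled with its reverse complement, received an E-score from the Universal PBM Analysis Suite.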
row,Sequence,PBM E-score
1,CAGCCGCC,-0.154
2,ACTAGAGC,-0.116
3,ACATAGGA,-0.178
4,GCTCTCGA,-0.0617
5,CCGACTCA,-0.101
6,CAAGAGTA,0.00378
7,GAGACCAC,0.15
8,CGATCGGA,-0.0483
9,AGTTTGTA,0.0748
10,CGATTACG,-0.051
11,CGTATTCA,0.0538
12,ATATCGAC,-0.00502
13,AGGTTGAT,0.0401
14,ATACCAGC,-0.0649
15,GACCTACC,0.109
16,ATTTGAAG,0.0444
17,CGTGACAC,-0.0877
18,TATAGAGA,-0.066
19,CGCGACTC,-0.0425
20,CCATTTCA,-0.11
21,AGCAGATG,-0.264
22,AATCGAAA,0.0353
23,CTCATGTA,0.00014
24,GCAACGAC,-0.218
25,AAAGCGGG,-0.212

row,Sequence,PBM E-score
1,CCGCAAAA,0.258
2,ATTAGACC,-0.0851
3,GTGGGAAA,-0.00346
4,CAACGACC,0.0537
5,CCGATTCA,-0.263
6,AGGACCCC,0.102
7,CGGGCCCA,-0.126
8,CCGGGTAC,0.348
9,CTCACCCA,0.00498
10,GACTATCC,-0.23
11,ATTAGTAG,0.0336
12,ACACCTCT,-0.111
13,CTCCCATC,-0.248
14,AACAACTT,0.172
15,GCCACGGA,-0.00937
16,CAGAGACA,-0.317
17,CGGCCTCA,0.162
18,ACAACTTC,0.229
19,ACACTTTG,0.0966
20,GAATTAGA,-0.00012
21,GCTGCAAA,0.19
22,TTATGAAA,0.183
23,AGCTCGTC,-0.294
24,AATCGAAG,0.026
25,CGCCGGAC,-0.167

row,Sequence,PBM E-score
1,ATGGCTGA,-0.0536
2,CACTCCGG,0.118
3,CAATCCTG,-0.0364
4,TAGCGAGA,-0.0721
5,ATTTGCGG,0.00189
6,CCGATGCC,-0.108
7,AACCCTCT,0.27
8,AGCCTAGC,-0.261
9,AGACCCGA,0.274
10,CCGCGTCA,-0.107
11,CTACACTC,-0.115
12,TGCTACCA,-0.0261
13,ACCTCTTG,0.29
14,TAGCACGA,-0.0403
15,AACCCGAA,0.327
16,AGGCTCAG,-0.176
17,CCTAGGTA,0.0255
18,GGCGGAAA,-0.00849
19,ATACCCCC,0.221
20,CGGGAAAC,0.103
21,ACTCTGAG,0.0108
22,CCCCTTTA,-0.00689
23,ACCATGGT,0.0512
24,CGGTCGTC,-0.0244
25,CACGGGAA,-0.237

row,Sequence,PBM E-score
1,CCCCCACC,-0.378
2,ATACTCTC,-0.15
3,GAGAACCA,0.187
4,CCCAGACG,-0.166
5,AGGGCACT,-0.219
6,GCTACGCC,-0.238
7,GAGGGAAA,-0.239
8,ATCTCTTG,-0.112
9,CTCCCATA,-0.177
10,ATTGCAGA,0.0451
11,CCGTAACC,0.471
12,CACCCTGG,0.169
13,ACAGCCAC,0.0177
14,CCTCATGC,-0.135
15,AAATTCAT,0.107
16,ATCGTCCG,-0.146
17,ACTTCATG,-0.0431
18,CACCCGTA,0.117
19,AGAGGAGC,-0.227
20,CCGCGAAC,0.163
21,AACAGTTA,0.0629
22,AATCCATG,-0.135
23,ACGCGCCG,-0.193
24,TAGTCCGA,-0.0595
25,GCTCAGCA,0.0141

row,Sequence,PBM E-score
1,GACCAAAC,0.115
2,AAGTATTA,0.138
3,ACACCCGC,0.0357
4,AATAGGTG,0.045
5,ACCCCTAC,0.293
6,CTTGGACA,-0.0713
7,AAAAACAT,0.0245
8,CTTACACC,-0.142
9,AGCCCTAT,-0.0625
10,GAAACTTA,0.14
11,CGTAGAAA,0.0715
12,AGGAAGCA,-0.253
13,AGATTCAT,-0.354
14,AGTTTTTA,0.0815
15,TGAACCCA,0.242
16,CAGTCGCC,-0.186
17,CCTGAGGA,-0.0361
18,CAAGTGGA,-0.188
19,AAACTTTA,0.149
20,CACAACAA,0.0567
21,AATCTGGT,0.182
22,CGTACTAC,0.0132
23,AGCCGGAT,-0.082
24,ATAGGCTG,-0.125
25,AGCCTTGC,-0.257

row,Sequence,PBM E-score
1,ACTATGTC,-0.105
2,AGTCAGGG,-0.15
3,GCTTCGAC,-0.216
4,ACGTAGGG,-0.289
5,CGAGCAGC,0.029
6,GAGGATCA,0.112
7,GTGGTTGA,0.0163
8,TGCGGCCA,0.138
9,AGATGGAA,-0.152
10,AATTTAGT,0.161
11,AAGGCGTA,-0.173
12,CGGTTCGC,-0.128
13,CCAAATGG,0.122
14,TCGGTGAA,-0.0901
15,AAGCTTAC,0.203
16,TAACATGA,-0.0126
17,AAAACCTC,0.291
18,GAGGGAGA,-0.233
19,CGCCCTGC,-0.0847
20,ATTAAGCA,-0.0391
21,CAGTGCTC,-0.041
22,TGAGGCCA,0.0976
23,CGAGGTTA,0.455
24,CCTTTTTA,0.205
25,ACTGTGCA,-0.096

row,Sequence,PBM E-score
1,CATTGGAC,0.0218
2,AGCCTACG,0.0114
3,CGTAAATC,0.146
4,AAGCGTAC,-0.161
5,ATAGGATG,-0.191
6,AATCTATA,0.17
7,CGGGGTGA,0.316
8,AGCGAGGC,-0.266
9,AGTCCGCC,-0.122
10,CACGTACA,-0.0299
11,ATAGTAAG,-0.0126
12,CAGCTTCG,-0.117
13,GCGAGTTA,0.0927
14,GACTTCGA,-0.149
15,CGCAACCG,0.281
16,GATTTAGA,0.0863
17,CGTTTTAG,0.00411
18,GGACCACA,0.101
19,AAAGTGTT,0.0802
20,GCTCAGGA,-0.169
21,ACGAAGTA,-0.344
22,ACTCGGGG,-0.179
